# Experimental data reported in publication PMC5892938.
# The list shows a part of the results. At the low end of the ranking the order means little.
# Molecular target: GST-SBP-SLBP (stem-loop binding protein) (UniProt Q14493)
# Test: targeted RNA Bind-n-Seq;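 note: DESeq read counts versus GST-SBP nonspecific binding control pulldown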
# Conditions: RBNS binding buffer: 25 mM Tris pH 7.5, 150 mM KCl, 3 mM MgCl2, 0.1% Tween, 0.5 mg/mL BSA, 1 mM DTT; 27 nM protein, 750 pM RNA pool; temperature not stated; high values mean tight binding
row,Sequence,binding signal (log2 fold change)
1,GGUCACGUCUCAAUCAACUCAUCCCCAGGAGUUUACUCCUGCAAUUUCAACAGCUCGCAGUCAAG,-0.0951
2,GGUCACGUCUCAAUCAACUCCCUCGAGGGGGGGAAAACCCCUUUACCCUCCAUAUCAACAGCUCGCAGUCAAG,-0.124
3,GGUCACGUCUCAAUCAACUCAUCCCCCAGGGAAACCCCUGGUUUAUUCAACAGCUCGCAGUCAAG,-0.06
4,GGUCACGUCUCAAUCAACUCAUUCCCAGGAGUUUACUCCUGCUUUCUCAACAGCUCGCAGUCAAG,0.0318
5,GGUCACGUCUCAAUCAACUCUUCGUCCAGGGAAAUCCCUGGUAUUUUCAACAGCUCGCAGUCAAG,-0.164
6,GGUCACGUCUCAAUCAACUCUUAAGAGGGGGGGAAAACCCCUUUGCCCUCAACCUCAACAGCUCGCAGUCAAG,-0.245
7,GGUCACGUCUCAAUCAACUCAAUCCCCAGGGAAAGCCCUGGUAAAUUCAACAGCUCGCAGUCAAG,0.148
8,GGUCACGUCUCAAUCAACUCUAUUUCAGGAGUUUUCUCCUGCUUUCUCAACAGCUCGCAGUCAAG,0.155
9,GGUCACGUCUCAAUCAACUCAUUCUCAGGAGUUUCCUCCUGUUUAUUCAACAGCUCGCAGUCAAG,-0.0367
10,GGUCACGUCUCAAUCAACUCAAUCUCCAGGGAAAACCCUGGUUUAUUCAACAGCUCGCAGUCAAG,-0.252
11,GGUCACGUCUCAAUCAACUCUUUCUCAGGAGUUUACUCCUGCUAUCUCAACAGCUCGCAGUCAAG,0.0667
12,GGUCACGUCUCAAUCAACUCAUCCCCAGGAGUUUGCUCCUGUAUUCUCAACAGCUCGCAGUCAAG,0.0566
13,GGUCACGUCUCAAUCAACUCGUUUUCAGGAGUUUCCUCCUGCAUAUUCAACAGCUCGCAGUCAAG,-0.0467
14,GGUCACGUCUCAAUCAACUCUUUUUCAGGAGUUUCCUCCUGUAUUCUCAACAGCUCGCAGUCAAG,0.0871
15,GGUCACGUCUCAAUCAACUCCAUCGAGGGGGGGAAAACCCCUUUACCCUCACAUUCAACAGCUCGCAGUCAAG,0.263
16,GGUCACGUCUCAAUCAACUCAUCUCCCAGGGAAACCCCUGGUAUUCUCAACAGCUCGCAGUCAAG,0.118
17,GGUCACGUCUCAAUCAACUCACUAGAGGGGGGGAAAACCCCUUUACCCUCCACUUCAACAGCUCGCAGUCAAG,-0.334
18,GGUCACGUCUCAAUCAACUCAAUUCCAGGAGUUUUCUCCUGCUAAGUCAACAGCUCGCAGUCAAG,0.192
19,GGUCACGUCUCAAUCAACUCUUCCUCCAGGGAAAGCCCUGGCAUUCUCAACAGCUCGCAGUCAAG,0.15
20,GGUCACGUCUCAAUCAACUCUAUUUCCAGGGAAAUCCCUGGUAUUUUCAACAGCUCGCAGUCAAG,-0.0059
21,GGUCACGUCUCAAUCAACUCAAUCCCAGGAGUUUCCUCCUGUAAUUUCAACAGCUCGCAGUCAAG,0.078
22,GGUCACGUCUCAAUCAACUCAUCUCCCAGGGAAAUCCCUGGUUAACUCAACAGCUCGCAGUCAAG,-0.0747
23,GGUCACGUCUCAAUCAACUCAAACGAGGGGGGGAAAACCCCUUUGCCCUCAUAUUCAACAGCUCGCAGUCAAG,-0.12
24,GGUCACGUCUCAAUCAACUCAACUUCCAGGGAAACCCCUGGCUAACUCAACAGCUCGCAGUCAAG,0.232
25,GGUCACGUCUCAAUCAACUCUUCUUCAGGAGUUUUCUCCUGCUAUGUCAACAGCUCGCAGUCAAG,0.00166

row,Sequence,binding signal (log2 fold change)
1,GGUCACGUCUCAAUCAACUCAUUCCCAGGAGUUUACUCCUGCUAAUUCAACAGCUCGCAGUCAAG,0.0994
2,GGUCACGUCUCAAUCAACUCUUCGCCAGGAGUUUCCUCCUGUAAAUUCAACAGCUCGCAGUCAAG,-0.0534
3,GGUCACGUCUCAAUCAACUCUAUCUCAGGAGUUUUCUCCUGCAUAUUCAACAGCUCGCAGUCAAG,-0.0548
4,GGUCACGUCUCAAUCAACUCACUAGAGGGGGGGAAAACCCCUUUGCCCUCCAACUCAACAGCUCGCAGUCAAG,0.317
5,GGUCACGUCUCAAUCAACUCGUUUUCAGGAGUUUUCUCCUGUUUUUUCAACAGCUCGCAGUCAAG,0.131
6,GGUCACGUCUCAAUCAACUCAAAAGAGGGGGGGAAAACCCCUUUACCCUCCAUAUCAACAGCUCGCAGUCAAG,-0.1
7,GGUCACGUCUCAAUCAACUCUACUUCCAGGGAAAUCCCUGGUAUAUUCAACAGCUCGCAGUCAAG,-0.217
8,GGUCACGUCUCAAUCAACUCAAUUCCAGGAGUUUCCUCCUGCAUUUUCAACAGCUCGCAGUCAAG,0.321
9,GGUCACGUCUCAAUCAACUCUUACGAGGGGGGGAAAACCCCUUUACCCUCACUUUCAACAGCUCGCAGUCAAG,-0.203
10,GGUCACGUCUCAAUCAACUCAACUUCAGGAGUUUCCUCCUGUUUUUUCAACAGCUCGCAGUCAAG,-0.0509
11,GGUCACGUCUCAAUCAACUCUAGUCCCAGGGAAAACCCUGGUAAAUUCAACAGCUCGCAGUCAAG,-0.182
12,GGUCACGUCUCAAUCAACUCAACUCCAGGAGUUUUCUCCUGCAUAUUCAACAGCUCGCAGUCAAG,0.0938
13,GGUCACGUCUCAAUCAACUCAUCCUCAGGAGUUUUCUCCUGUAAUUUCAACAGCUCGCAGUCAAG,0.0689
14,GGUCACGUCUCAAUCAACUCUUUAGAGGGGGGGAAAACCCCUUUGCCCUCAUUAUCAACAGCUCGCAGUCAAG,-0.1
15,GGUCACGUCUCAAUCAACUCUUUCUCAGGAGUUUUCUCCUGUUAUGUCAACAGCUCGCAGUCAAG,0.024
16,GGUCACGUCUCAAUCAACUCUAUCCCCAGGGAAAACCCUGGUAUUCUCAACAGCUCGCAGUCAAG,0.0466
17,GGUCACGUCUCAAUCAACUCUUUCGAGGGGGGGAAAACCCCUUUGCCCUCAUCAUCAACAGCUCGCAGUCAAG,0.127
18,GGUCACGUCUCAAUCAACUCAAUCUCAGGAGUUUCCUCCUGUUUAUUCAACAGCUCGCAGUCAAG,0.173
19,GGUCACGUCUCAAUCAACUCAAUCUCCAGGGAAAACCCUGGCAAUUUCAACAGCUCGCAGUCAAG,0.237
20,GGUCACGUCUCAAUCAACUCAUUUUCAGGAGUUUGCUCCUGCUAUUUCAACAGCUCGCAGUCAAG,-0.000797
21,GGUCACGUCUCAAUCAACUCAAUCCCAGGAGUUUCCUCCUGUAUAUUCAACAGCUCGCAGUCAAG,0.00994
22,GGUCACGUCUCAAUCAACUCACCCGAGGGGGGGAAAACCCCUUUACCCUCAACAUCAACAGCUCGCAGUCAAG,-0.258
23,GGUCACGUCUCAAUCAACUCUAUCCCCAGGGAAAACCCUGGCAAAUUCAACAGCUCGCAGUCAAG,0.0358
24,GGUCACGUCUCAAUCAACUCAAUCUCAGGAGUUUGCUCCUGCUUUCUCAACAGCUCGCAGUCAAG,0.113
25,GGUCACGUCUCAAUCAACUCACUAGAGGGGGGGAAAACCCCUUUACCCUCAAUUUCAACAGCUCGCAGUCAAG,0.352

row,Sequence,binding signal (log2 fold change)
1,GGUCACGUCUCAAUCAACUCUAUCCCCAGGGAAAUCCCUGGCAUUUUCAACAGCUCGCAGUCAAG,-0.193
2,GGUCACGUCUCAAUCAACUCAUCUCCAGGAGUUUACUCCUGCAUACUCAACAGCUCGCAGUCAAG,0.16
3,GGUCACGUCUCAAUCAACUCAAUUUCAGGAGUUUUCUCCUGCGUAUUCAACAGCUCGCAGUCAAG,0.0803
4,GGUCACGUCUCAAUCAACUCAUUUCCCAGGGAAAUCCCUGGUUUUCUCAACAGCUCGCAGUCAAG,-0.0893
5,GGUCACGUCUCAAUCAACUCCCAAGAGGGGGGGAAAACCCCUUUGCCCUCAUCAUCAACAGCUCGCAGUCAAG,-0.373
6,GGUCACGUCUCAAUCAACUCCCAAGAGGGGGGGAAAACCCCUUUGCCCUCCACAUCAACAGCUCGCAGUCAAG,-0.19
7,GGUCACGUCUCAAUCAACUCUAUCUCAGGAGUUUCCUCCUGCUAUCUCAACAGCUCGCAGUCAAG,0.15
8,GGUCACGUCUCAAUCAACUCUUUCUCCAGGGAAAUCCCUGGCUUUUUCAACAGCUCGCAGUCAAG,-0.164
9,GGUCACGUCUCAAUCAACUCUCACGAGGGGGGGAAAACCCCUUUACCCUCAAAAUCAACAGCUCGCAGUCAAG,-0.0305
10,GGUCACGUCUCAAUCAACUCUCUCGAGGGGGGGAAAACCCCUUUACCCUCUUUCUCAACAGCUCGCAGUCAAG,0.14
11,GGUCACGUCUCAAUCAACUCUUCUUCAGGAGUUUUCUCCUGCAAUCUCAACAGCUCGCAGUCAAG,0.1
12,GGUCACGUCUCAAUCAACUCAUACGAGGGGGGGAAAACCCCUUUGCCCUCAAUAUCAACAGCUCGCAGUCAAG,-0.239
13,GGUCACGUCUCAAUCAACUCUAACGAGGGGGGGAAAACCCCUUUACCCUCACUUUCAACAGCUCGCAGUCAAG,0.232
14,GGUCACGUCUCAAUCAACUCCCACGAGGGGGGGAAAACCCCUUUACCCUCAACCUCAACAGCUCGCAGUCAAG,0.335
15,GGUCACGUCUCAAUCAACUCUUUUCCCAGGGAAAUCCCUGGCUAUCUCAACAGCUCGCAGUCAAG,0.0673
16,GGUCACGUCUCAAUCAACUCAUCCUCAGGAGUUUGCUCCUGUAUAUUCAACAGCUCGCAGUCAAG,0.152
17,GGUCACGUCUCAAUCAACUCUAUCCCAGGAGUUUUCUCCUGCAUAUUCAACAGCUCGCAGUCAAG,-0.0657
18,GGUCACGUCUCAAUCAACUCUCAAGAGGGGGGGAAAACCCCUUUACCCUCACCGUCAACAGCUCGCAGUCAAG,-0.187
19,GGUCACGUCUCAAUCAACUCACAAGAGGGGGGGAAAACCCCUUUGCCCUCACCUUCAACAGCUCGCAGUCAAG,0.228
20,GGUCACGUCUCAAUCAACUCAUCUCCCAGGGAAAGCCCUGGUAUUUUCAACAGCUCGCAGUCAAG,0.263
21,GGUCACGUCUCAAUCAACUCAUUCUCCAGGGAAAUCCCUGGUAAUUUCAACAGCUCGCAGUCAAG,-0.0744
22,GGUCACGUCUCAAUCAACUCAACAGAGGGGGGGAAAACCCCUUUACCCUCAUCGUCAACAGCUCGCAGUCAAG,-0.455
23,GGUCACGUCUCAAUCAACUCAAAAGAGGGGGGGAAAACCCCUUUACCCUCAACUUCAACAGCUCGCAGUCAAG,-0.277
